In all, about 33,000 sequences were measured (“E-score (-0.5 to 0.5)”: median about -0.054, highest 2% from about 0.39 on). Some of the results follow.
These sequences were tested against Ylr278c (UniProt Q05854) (assay: PBM E-score (8-mer binding enrichment) (E-score (-0.5 to 0.5)); higher = stronger / more preferred TF binding; most listed sequences are background and not binding sites). Settings: protein concentration: 200 nM; construct: GST-DNA-binding domain.
In short: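 Masliner-normalised scans of fluorescent anti-GST signal were the basis for scoring. That signal came from GST-tagged yeast transcription factors applied at about 100-200 nM to double-stranded universal all-10-mer Agilent arrays on fresh or once-stripped slides. Each ungapped eight-base word, pooled with its reverse complement, received an E-score from the Universal PBM Analysis Suite.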

| Sequence | PBM E-score |
| --- | --- |
| CACTCCAA | 0.031 |
| CAAAAGTC | 0.0214 |
| ATAGCTCC | 0.119 |
| GCTATACA | -0.191 |
| ACCATAGT | -0.04 |
| GTGTCTTA | -0.188 |
| CGCCATCC | 0.0379 |
| GTAAACAA | -0.0542 |
| ATACGCGG | 0.202 |
| AGGGACTG | -0.0934 |
| ACGATTAG | -0.0977 |
| GTGTTTAA | -0.0159 |
| GCAAAAGA | -0.148 |
| ATAGCCCG | 0.171 |
| CTAACGAA | -0.0464 |
| GGGTGAAC | -0.0508 |
| CTGTTCGA | -0.278 |
| AAGTGATT | -0.0725 |
| ATTCCTCC | 0.273 |
| CTGTTGCC | -0.111 |
| GACTTTTA | -0.0377 |
| ATAGACCG | 0.0141 |
| CTTCGCTC | 0.0673 |
| CTGCCGTC | 0.0804 |
| GAAATCCA | 0.129 |

| Sequence | PBM E-score |
| --- | --- |
| GGTTAATA | 0.103 |
| CAGCTGGG | -0.129 |
| AGACTACC | 0.0713 |
| ATCAAACC | 0.0293 |
| GCATAGCC | -0.00146 |
| AACGAGTA | -0.0837 |
| CGTGGATA | -0.11 |
| ATCCAGTC | -0.00656 |
| AAGCGGTC | 0.132 |
| ACGTTCAG | -0.293 |
| GCGGTACA | 0.0965 |
| AGCACACT | -0.124 |
| ATCAGATC | -0.0678 |
| CAATTGTA | -0.15 |
| ACAACCCC | 0.166 |
| GATGGTAC | -0.0327 |
| ATAACGGA | 0.31 |
| AGGCTTAT | -0.188 |
| ATAGCCTA | -0.217 |
| CGTGCAAC | -0.0111 |
| GTCTTAGA | -0.201 |
| GCTGCTAA | -0.0103 |
| AATACAGG | 0.00619 |
| AACAGATC | -0.0757 |
| GTTGGCTA | -0.0869 |

| Sequence | PBM E-score |
| --- | --- |
| ACGCGCCC | 0.19 |
| GGGTTACC | -0.0256 |
| CCATTATC | -0.167 |
| CCAGTCCG | 0.322 |
| TAATCAGA | 0.0117 |
| CATTTCAC | 0.0992 |
| CTCCGCAC | 0.41 |
| GCCCTCAC | -0.226 |
| CATCTGCC | 0.0606 |
| CCTGGGGC | -0.0435 |
| AACTGCTC | 0.00565 |
| CGCTCTCC | 0.167 |
| ACATGAAT | -0.185 |
| CCCCTCCA | -0.136 |
| AGATTCCC | 0.21 |
| ACGATGGG | -0.0868 |
| CTATAACA | -0.275 |
| ATTGCAAG | -0.216 |
| AGATCACA | -0.0741 |
| AAGGCTAT | -0.189 |
| AGGCAGAA | -0.0575 |
| CCCGAAAG | 0.238 |
| CATGTGGC | -0.00305 |
| AGAGATCC | 0.0436 |
| CTAGCCGC | 0.132 |

| Sequence | PBM E-score |
| --- | --- |
| CCACTTAC | 0.0731 |
| GGCGCGCC | 0.294 |
| ACTACAAT | 0.0161 |
| ATTTCCCA | -0.169 |
| ATAACACG | 0.0169 |
| AGGCATCC | -0.12 |
| GGAAGTTA | 0.204 |
| AATCAAAC | -0.0046 |
| GGTTCATA | -0.121 |
| CCCCCCGG | 0.22 |
| CGATCTAC | 0.0184 |
| GTTGCTAA | -0.00866 |
| CTGTGAAG | -0.243 |
| CCCTGTGA | -0.334 |
| CCTGTTAC | -0.0951 |
| CGAACAGC | -0.0272 |
| ACCTGATA | -0.0535 |
| CCCGTTCA | -0.0458 |
| CCAACAGG | -0.336 |
| CTATATAC | 0.0926 |
| AAAGGGGG | -0.19 |
| TTGACAAA | 0.00989 |
| ACAATCGT | -0.294 |
| GGTACTAA | 0.137 |
| GTGGCTAA | -0.177 |

| Sequence | PBM E-score |
| --- | --- |
| ACGATCCC | 0.0165 |
| CCAAGCGG | 0.0563 |
| AGAGCAAG | -0.00148 |
| ACACGAGT | -0.126 |
| CGTCCATA | -0.0281 |
| GCGGTATA | 0.145 |
| GGCCACCA | -0.0754 |
| CGGAATTA | 0.466 |
| CCTTAGCC | -0.0253 |
| TCTAAAGA | -0.115 |
| AACCTTAT | -0.17 |
| ACTCCGGA | 0.494 |
| CCAGTCAA | -0.231 |
| AACGGATA | 0.292 |
| ACGGGCAC | -0.151 |
| CGCGAGGC | 0.1 |
| AATAGATC | 0.0283 |
| ATGCGAAT | 0.038 |
| AATAATGA | -0.0499 |
| GAAAATGA | 0.126 |
| AGACCAAG | -0.0136 |
| GAATGCAA | 0.00843 |
| ACCGGTAC | 0.19 |
| CGATAAGC | 0.0987 |
| TGGAGGAA | -0.131 |

| Sequence | PBM E-score |
| --- | --- |
| AGATAGGG | -0.14 |
| CTGCCAAA | -0.0486 |
| CGATTCTA | -0.131 |
| AAAAGTCC | 0.371 |
| AGTCCACT | -0.294 |
| AAGAAGGT | -0.0973 |
| CTACCGCC | 0.147 |
| AAGTCATC | -0.195 |
| AGAAGGCC | 0.0969 |
| AAGAACGG | 0.0623 |
| ATCTGATC | 0.00201 |
| GGTGAATA | 0.0908 |
| AAACAGAC | -0.0477 |
| ACGGACTA | 0.315 |
| CCGTCGCC | 0.288 |
| CGCTTAAG | -0.137 |
| TAACCGAA | 0.0695 |
| ATCAAAAT | -0.184 |
| GGTAGGAA | -0.0873 |
| AACGTTCA | -0.299 |
| AGGGCATC | -0.27 |
| CATGCGTA | -0.0634 |
| CCAAGAAA | -0.0453 |
| TGCACGCA | -0.143 |
| AATACTAA | -0.0403 |

| Sequence | PBM E-score |
| --- | --- |
| GGAACCAC | 0.0576 |
| CATCCAGG | -0.187 |
| ATATACTC | -0.0435 |
| CACTATAA | -0.376 |
| AGCGTATA | -0.0437 |
| AAGCCGGC | 0.372 |
| CCAAGGTC | -0.0268 |
| GCGGTCTA | 0.0022 |
| AGCAATTG | -0.0905 |
| ACGCAGCT | -0.23 |
| GTGACCTA | -0.132 |
| AAATCCGA | 0.449 |
| CGTGGTAG | -0.0716 |
| CGCTGATC | 0.243 |
| CCTTGTAC | -0.105 |
| CCCCATAC | -0.00506 |
| AGCTCAGG | -0.0847 |
| AGTTTTGG | -0.03 |
| CGGTGGAC | 0.158 |
| GACATGGA | -0.0811 |
| CCTGGAGA | -0.285 |
| GATGTGAC | -0.0139 |
| GATCGATC | -0.0493 |
| CACTCGAG | -0.22 |
| CCTCCTCC | 0.16 |

| Sequence | PBM E-score |
| --- | --- |
| CAACTACA | -0.0431 |
| CCCTGGGA | -0.0399 |
| GCCAGCCA | -0.105 |
| ATGTACCA | 0.00795 |
| AGAAACCC | 0.173 |
| TAATGTAA | -0.0653 |
| AGCAGCCA | -0.259 |
| GACTTGAA | 0.0382 |
| CCCTGAAG | -0.257 |
| GCTTACAA | -0.275 |
| AGCCTCGA | -0.214 |
| AAAGGGAT | -0.205 |
| AGAAAGCC | -0.0315 |
| CTCTCCTC | -0.236 |
| ACCCGCGG | 0.363 |
| CGTTCTAC | 0.00488 |
| CAAGAAAA | -0.0534 |
| TACCCGCA | 0.157 |
| CAATGGAG | -0.129 |
| AGTCACCG | 0.101 |
| CTCGGGCA | 0.162 |
| CTTAGTGA | -0.0946 |
| AGACCATA | -0.0489 |
| CGAGCCGA | 0.0788 |
| ATGACTCC | 0.184 |

| Sequence | PBM E-score |
| --- | --- |
| AAGGGCCG | 0.0324 |
| GGTACCCA | -0.151 |
| AACATGCC | 0.133 |
| CCGCTACA | 0.198 |
| ATTACCAA | -0.0554 |
| GCAAGTCC | 0.129 |
| AATCGATG | -0.17 |
| AAAGGTAC | -0.0371 |
| TCCCCCGA | 0.263 |
| CATGTCAC | -0.0432 |
| ATACTGAG | -0.0928 |
| ATGCGAAG | -0.0858 |
| CCAAAATA | 0.119 |
| AGGTTGCA | -0.143 |
| ATCCGAGG | 0.274 |
| GATGGTTA | -0.0541 |
| CAGACAAG | -0.106 |
| AAATCGAA | -0.194 |
| CAGGCCAG | -0.132 |
